{
  "source": "the supplement of paper PMC3334620",
  "note": "In all, about 33,000 sequences were measured (“E-score (-0.5 to 0.5)”: median about -0.036, highest 2% from about 0.37 on). The list shows a part of the results.",
  "data": [
    {"molecular_target": "T1, Yer064c (UniProt P40041)", "T1 sequence": "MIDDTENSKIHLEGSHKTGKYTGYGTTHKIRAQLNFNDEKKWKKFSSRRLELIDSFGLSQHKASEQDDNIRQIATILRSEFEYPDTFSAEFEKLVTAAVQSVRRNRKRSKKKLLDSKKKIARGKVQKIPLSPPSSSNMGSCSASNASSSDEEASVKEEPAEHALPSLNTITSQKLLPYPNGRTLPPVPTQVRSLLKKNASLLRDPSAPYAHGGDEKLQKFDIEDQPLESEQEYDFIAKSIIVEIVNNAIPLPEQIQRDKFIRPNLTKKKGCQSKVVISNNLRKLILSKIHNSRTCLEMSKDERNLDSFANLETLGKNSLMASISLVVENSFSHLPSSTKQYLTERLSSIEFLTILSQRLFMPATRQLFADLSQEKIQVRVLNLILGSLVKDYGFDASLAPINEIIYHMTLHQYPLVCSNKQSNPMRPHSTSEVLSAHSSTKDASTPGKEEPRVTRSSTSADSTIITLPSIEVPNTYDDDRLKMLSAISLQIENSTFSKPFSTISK", "test": "PBM E-score (8-mer binding enrichment) (E-score (-0.5 to 0.5)); higher = stronger / more preferred TF binding; most listed sequences are background and not binding sites", "conditions": "protein concentration: 200 nM; construct: GST-full length", "in_short": "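Masliner-normalised scans of fluorescent anti-GST signal were the basis for scoring. That signal came from GST-tagged yeast transcription factors applied at about 100-200 nM to double-stranded universal all-10-mer Agilent arrays on fresh or once-stripped slides. Each ungapped eight-base word, pooled with its reverse complement, received an E-score from the Universal PBM Analysis Suite.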", "values": [
      {"sequence": "ACATATCA", "PBM E-score": -0.0372},
      {"sequence": "CTGGAAAG", "PBM E-score": 0.0197},
      {"sequence": "CAAACATG", "PBM E-score": -0.0945},
      {"sequence": "ACCTTGGC", "PBM E-score": -0.0483},
      {"sequence": "AGTTCGTA", "PBM E-score": 0.0428},
      {"sequence": "TGCGTCCA", "PBM E-score": -0.161},
      {"sequence": "ACGTCGTC", "PBM E-score": -0.0375},
      {"sequence": "CACAATAC", "PBM E-score": -0.104},
      {"sequence": "AGCCAAAA", "PBM E-score": 0.00818},
      {"sequence": "CTTGGTTC", "PBM E-score": -0.0754},
      {"sequence": "CCCGGTAC", "PBM E-score": -0.19},
      {"sequence": "ATGCATAA", "PBM E-score": -0.0405},
      {"sequence": "CCTGCACA", "PBM E-score": -0.181},
      {"sequence": "CTTGGTGC", "PBM E-score": -0.0416},
      {"sequence": "GAATCCTA", "PBM E-score": 0.159},
      {"sequence": "ATGCATCC", "PBM E-score": -0.269},
      {"sequence": "AGTCTCGC", "PBM E-score": 0.333},
      {"sequence": "CTAGGGCA", "PBM E-score": -0.247},
      {"sequence": "ATGTGTTA", "PBM E-score": 0.195},
      {"sequence": "CTCCCCAG", "PBM E-score": -0.281},
      {"sequence": "TAGGTGAA", "PBM E-score": 0.147},
      {"sequence": "TCTCTTCA", "PBM E-score": -0.18},
      {"sequence": "AAAGCCTA", "PBM E-score": -0.0551},
      {"sequence": "CGCGTAAA", "PBM E-score": -0.036},
      {"sequence": "GCGACCAA", "PBM E-score": -0.27},
      {"sequence": "AACGGCAA", "PBM E-score": -0.0589},
      {"sequence": "CATTCATA", "PBM E-score": 0.195},
      {"sequence": "ACCCTAAG", "PBM E-score": -0.159},
      {"sequence": "CTCCTCAC", "PBM E-score": -0.207},
      {"sequence": "GTAGTCCA", "PBM E-score": 0.262},
      {"sequence": "TACCGTAA", "PBM E-score": -0.124},
      {"sequence": "GCGCGGCA", "PBM E-score": -0.238},
      {"sequence": "AGGGCACG", "PBM E-score": -0.272},
      {"sequence": "AAAGGGTC", "PBM E-score": -0.0687},
      {"sequence": "GCTATCGA", "PBM E-score": -0.11},
      {"sequence": "TCAACACA", "PBM E-score": 0.198},
      {"sequence": "AGTCCAAT", "PBM E-score": 0.249},
      {"sequence": "CTCAATAA", "PBM E-score": 0.165},
      {"sequence": "CCTCGTGC", "PBM E-score": -0.165},
      {"sequence": "GCTTAGCA", "PBM E-score": -0.177},
      {"sequence": "ACTCATAG", "PBM E-score": 0.385},
      {"sequence": "CAAGCGAC", "PBM E-score": -0.0326},
      {"sequence": "CCTCGGAA", "PBM E-score": -0.064},
      {"sequence": "GCACTAGA", "PBM E-score": -0.141},
      {"sequence": "CTAGCCCC", "PBM E-score": -0.0659},
      {"sequence": "ATCAGAGC", "PBM E-score": 0.121},
      {"sequence": "ATACGTTA", "PBM E-score": -0.149},
      {"sequence": "AACGATAG", "PBM E-score": -0.149},
      {"sequence": "ACCCTCTA", "PBM E-score": -0.0547},
      {"sequence": "ATAGTCCC", "PBM E-score": 0.148},
      {"sequence": "AACGACAC", "PBM E-score": -0.105},
      {"sequence": "ATCCGGAA", "PBM E-score": 0.135},
      {"sequence": "CATCTTTA", "PBM E-score": -0.0705},
      {"sequence": "AAAATTAT", "PBM E-score": 0.0774},
      {"sequence": "ACATGGAT", "PBM E-score": 0.108},
      {"sequence": "AACTGCGT", "PBM E-score": 0.127},
      {"sequence": "ATCTTCAT", "PBM E-score": 0.0285},
      {"sequence": "GATGAACA", "PBM E-score": -0.015},
      {"sequence": "CTTGTTTC", "PBM E-score": -0.149},
      {"sequence": "AACTTCGA", "PBM E-score": -0.0668},
      {"sequence": "CTCAGATA", "PBM E-score": 0.268},
      {"sequence": "CAGGCGCA", "PBM E-score": -0.0607},
      {"sequence": "CTTATTGC", "PBM E-score": -0.2},
      {"sequence": "AAGTATGT", "PBM E-score": -0.0955},
      {"sequence": "AGAACGTG", "PBM E-score": -0.217},
      {"sequence": "AATAACAT", "PBM E-score": -0.0871},
      {"sequence": "CGGTGGGC", "PBM E-score": -0.341},
      {"sequence": "CAACCTTG", "PBM E-score": -0.0716},
      {"sequence": "TTGCGCAA", "PBM E-score": -0.153},
      {"sequence": "TAGGCGGA", "PBM E-score": -0.0581},
      {"sequence": "AGCAGTGC", "PBM E-score": -0.107},
      {"sequence": "ACATCGAC", "PBM E-score": -0.026},
      {"sequence": "TAGGGTCA", "PBM E-score": -0.096},
      {"sequence": "AATTTACT", "PBM E-score": 0.105},
      {"sequence": "AGACCGCC", "PBM E-score": -0.261},
      {"sequence": "CCCGGACG", "PBM E-score": -0.193},
      {"sequence": "ATCACCAA", "PBM E-score": 0.291},
      {"sequence": "ATCCCACC", "PBM E-score": -0.0881},
      {"sequence": "CCCAGAGG", "PBM E-score": -0.276},
      {"sequence": "CGCATTTA", "PBM E-score": 0.078},
      {"sequence": "ATCCGAAG", "PBM E-score": -0.0452},
      {"sequence": "TTCCGCAA", "PBM E-score": 0.0159},
      {"sequence": "AGGCGCAA", "PBM E-score": -0.0718},
      {"sequence": "ATATCCCG", "PBM E-score": -0.128},
      {"sequence": "CATAGTAC", "PBM E-score": 0.0464},
      {"sequence": "GGTTCCGA", "PBM E-score": -0.159}
    ]}
  ]
}
